Test results taken from the supplement of paper PMC10126150.
Sequences with one replicate were seen in a single cluster, so their values are uncertain.

Tested on: ATP
Assay: switch fluorescence ratio, 500 uM ATP over buffer (Cy3 cluster intensity, sum of 5 cycles each) (fold (ratio)); higher = stronger signal-on switching upon ATP binding; sequences stand for … in TCGTCGGCAGCGTCAGATGTGTATAAGAGACAGTTTTTTTTTTTTTTTTTTTTTTTTT…TC
Conditions: aptamer strand: ATP DNA aptamer (quencher-CACCTGGGGGAGTATTGCGGAGGAAGG + anchor), 100 nM annealed; ATP concentration: 500 uM; one replicate
In short: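 Exposure to 500 uM ATP lasted 15 min at 22 °C before imaging, and a selection-buffer image was taken beforehand, for Cy3-labelled switching-strand clusters on a modified Illumina MiSeq flow-cell annealed to 100 nM quencher-labelled ATP aptamer. Five buffer/ATP cycles were run with NaOH stripping and re-annealing between them. The fluorescence ratio per cluster is summed target-cycle over summed buffer-cycle Cy3 intensity, averaged per switch-domain sequence. Clusters outside 100-1000 RFU were excluded.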

Q: Which switch fluorescence ratio does the source give for GGCTCGTTTT here?
A: 0.997

Q: How did the switch fluorescence ratio turn out when GGCTGAGTG was run?
A: 0.985

Q: How did the switch fluorescence ratio turn out when GGCTGCATAA was run?
A: 1.12

Q: For GGCTGCCGGT, which switch fluorescence ratio is on record?
A: 0.974

Q: For GGCTGCTAAA, which switch fluorescence ratio is on record?
A: 1.02

Q: With GGCTGCTCCC as the sequence, how does the switch fluorescence ratio read?
A: 1.24

Q: How did the switch fluorescence ratio turn out when GGCTGGGGTC was run?
A: 0.959

Q: How did the switch fluorescence ratio turn out when GGCTGGTATT was run?
A: 0.993

Q: For GGCTGTAGGG, which switch fluorescence ratio is on record?
A: 1.03

Q: How did the switch fluorescence ratio turn out when GGCTTAAGCT was run?
A: 0.974

Q: GGCTTACATT was tested. Which switch fluorescence ratio did it give?
A: 0.969

Q: How did the switch fluorescence ratio turn out when GGCTTCAAGA was run?
A: 0.951

Q: Which switch fluorescence ratio does the source give for GGCTTCAGC here?
A: 0.997

Q: GGCTTCATCA was tested. Which switch fluorescence ratio did it give?
A: 1.03

Q: For GGCTTGATGA, which switch fluorescence ratio is on record?
A: 0.965

Q: Which switch fluorescence ratio does the source give for GGCTTGGTCG here?
A: 0.992

Q: For GGCTTGTACT, which switch fluorescence ratio is on record?
A: 1.01

Q: How did the switch fluorescence ratio turn out when GGGAAAAGCG was run?
A: 0.945

Q: Which switch fluorescence ratio does the source give for GGGAAAGTGT here?
A: 1

Q: For GGGAACGCTG, which switch fluorescence ratio is on record?
A: 0.967

Q: Which switch fluorescence ratio does the source give for GGGAACGTAC here?
A: 1.79

Q: How did the switch fluorescence ratio turn out when GGGAACTCCC was run?
A: 1

Q: How did the switch fluorescence ratio turn out when GGGAAGCACC was run?
A: 1.17

Q: With GGGAAGCGCT as the sequence, how does the switch fluorescence ratio read?
A: 0.997

Q: GGGAAGGCAA was tested. Which switch fluorescence ratio did it give?
A: 1.12

Q: With GGGAATCAGC as the sequence, how does the switch fluorescence ratio read?
A: 0.985

Q: For GGGAATCCGA, which switch fluorescence ratio is on record?
A: 1.1

Q: Which switch fluorescence ratio does the source give for GGGACAGTGC here?
A: 1.04

Q: GGGACATGAT was tested. Which switch fluorescence ratio did it give?
A: 0.998

Q: How did the switch fluorescence ratio turn out when GGGACATGGT was run?
A: 1.01

Q: GGGACCAAAC was tested. Which switch fluorescence ratio did it give?
A: 1.01

Q: GGGACCGGGG was tested. Which switch fluorescence ratio did it give?
A: 0.982

Q: For GGGACCTAGA, which switch fluorescence ratio is on record?
A: 0.996

Q: GGGACGGGTC was tested. Which switch fluorescence ratio did it give?
A: 0.981

Q: GGGACGTACC was tested. Which switch fluorescence ratio did it give?
A: 1.18

Q: For GGGACTCATG, which switch fluorescence ratio is on record?
A: 1.06

Q: How did the switch fluorescence ratio turn out when GGGACTCCCT was run?
A: 1.01

Q: For GGGAGACGAA, which switch fluorescence ratio is on record?
A: 0.99

Q: GGGAGAGCCA was tested. Which switch fluorescence ratio did it give?
A: 0.953

Q: How did the switch fluorescence ratio turn out when GGGAGAGTCT was run?
A: 1.02

Q: With GGGAGCCCGA as the sequence, how does the switch fluorescence ratio read?
A: 1.04

Q: Which switch fluorescence ratio does the source give for GGGAGCGGCG here?
A: 1.02

Q: With GGGAGGAGAA as the sequence, how does the switch fluorescence ratio read?
A: 1.05

Q: How did the switch fluorescence ratio turn out when GGGAGGAGTC was run?
A: 0.958

Q: Which switch fluorescence ratio does the source give for GGGAGGTGAT here?
A: 1.03

Q: With GGGAGGTGCG as the sequence, how does the switch fluorescence ratio read?
A: 0.982

Q: With GGGAGTCCAG as the sequence, how does the switch fluorescence ratio read?
A: 1.43

Q: GGGAGTCGTT was tested. Which switch fluorescence ratio did it give?
A: 1

Q: How did the switch fluorescence ratio turn out when GGGAGTGTCT was run?
A: 1.01

Q: For GGGAGTTCTC, which switch fluorescence ratio is on record?
A: 1.03

Q: For GGGAGTTGC, which switch fluorescence ratio is on record?
A: 0.99

Q: How did the switch fluorescence ratio turn out when GGGATAAGG was run?
A: 0.986

Q: With GGGATATGTC as the sequence, how does the switch fluorescence ratio read?
A: 0.868

Q: GGGATATT was tested. Which switch fluorescence ratio did it give?
A: 1.01

Q: Which switch fluorescence ratio does the source give for GGGATATTGC here?
A: 1.03

Q: For GGGATCAATA, which switch fluorescence ratio is on record?
A: 1.02

Q: How did the switch fluorescence ratio turn out when GGGATGTATA was run?
A: 0.95

Q: How did the switch fluorescence ratio turn out when GGGATTAATC was run?
A: 1.05

Q: For GGGATTCAAT, which switch fluorescence ratio is on record?
A: 0.957

Q: For GGGATTTTTC, which switch fluorescence ratio is on record?
A: 1.01

Q: With GGGCAAGACC as the sequence, how does the switch fluorescence ratio read?
A: 0.934

Q: How did the switch fluorescence ratio turn out when GGGCACATAT was run?
A: 1.07

Q: Which switch fluorescence ratio does the source give for GGGCAGGTGC here?
A: 0.991

Q: For GGGCAGTTAT, which switch fluorescence ratio is on record?
A: 1.01

Q: For GGGCATACTC, which switch fluorescence ratio is on record?
A: 1.05

Q: GGGCATCGA was tested. Which switch fluorescence ratio did it give?
A: 0.993

Q: Which switch fluorescence ratio does the source give for GGGCATGCTG here?
A: 0.96

Q: For GGGCCATACG, which switch fluorescence ratio is on record?
A: 1.03

Q: GGGCCATTCT was tested. Which switch fluorescence ratio did it give?
A: 1.17

Q: With GGGCCCAATT as the sequence, how does the switch fluorescence ratio read?
A: 1.02

Q: Which switch fluorescence ratio does the source give for GGGCCGATGG here?
A: 1.05

Q: With GGGCCGCGGG as the sequence, how does the switch fluorescence ratio read?
A: 1.07

Q: GGGCCGCTGT was tested. Which switch fluorescence ratio did it give?
A: 0.998

Q: GGGCCGTTCC was tested. Which switch fluorescence ratio did it give?
A: 1.02

Q: With GGGCCTGCGA as the sequence, how does the switch fluorescence ratio read?
A: 1.04

Q: With GGGCCTTTT as the sequence, how does the switch fluorescence ratio read?
A: 0.958

Q: For GGGCGACAGG, which switch fluorescence ratio is on record?
A: 1

Q: How did the switch fluorescence ratio turn out when GGGCGAGGCA was run?
A: 0.972

Q: With GGGCGCCACG as the sequence, how does the switch fluorescence ratio read?
A: 0.987

Q: How did the switch fluorescence ratio turn out when GGGCGCTAGC was run?
A: 0.983

Q: Which switch fluorescence ratio does the source give for GGGCGGACGG here?
A: 0.993

Q: For GGGCGGAGCC, which switch fluorescence ratio is on record?
A: 0.974

Q: GGGCGGCAAA was tested. Which switch fluorescence ratio did it give?
A: 1.02

Q: With GGGCGGCGCA as the sequence, how does the switch fluorescence ratio read?
A: 0.977

Q: GGGCGGCTA was tested. Which switch fluorescence ratio did it give?
A: 0.747
